Measured values reported in the supplement of paper PMC10441789.
Some of the results follow. Antibody binding of pooled human sera (four to six donors per pool; dilution not stated) to peptides of the Trypanosoma cruzi antigen TSSA on microarrays. Quantile-normalised fluorescence in arbitrary units, mean of duplicate arrays; higher = more binding. No active / inactive call. The uninfected pools are read here as the healthy donors of the same country. The strongest signals lie near the top of the scale (about 60,000).

Key:
Experiment in all cases: antibody binding signal (normalised fluorescence) (arbitrary fluorescence units); higher = stronger serum antibody binding to peptide
[1] = tested on: pooled sera of chronic Chagas disease patients, Argentina
Description: (§1)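 Microarray of 15-residue peptides over residues 30-55 of Trypanosoma cruzi TSSAII, each with 1 to 10 substitutions at naturally variable positions, probed with one serum pool per country.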

[2] = tested on: pooled sera of chronic Chagas disease patients, Bolivia
Description: as §1

[3] = tested on: pooled sera of chronic Chagas disease patients, Brazil
Description: as §1

[4] = tested on: pooled sera of chronic Chagas disease patients, Colombia
Description: as §1

[5] = tested on: pooled sera of chronic Chagas disease patients, Mexico
Description: as §1

[6] = tested on: pooled sera of chronic Chagas disease patients, USA
Description: as §1

[7] = tested on: pooled sera of uninfected people, Argentina
Description: as §1

[8] = tested on: pooled sera of uninfected people, Bolivia
Description: as §1

[9] = tested on: pooled sera of uninfected people, Brazil
Description: as §1

[10] = tested on: pooled sera of uninfected people, Colombia
Description: as §1

[11] = tested on: pooled sera of uninfected people, Mexico
Description: as §1

[12] = tested on: pooled sera of uninfected people, USA
Description: as §1

| Sequence | antibody binding signal [1] | antibody binding signal [2] | antibody binding signal [3] | antibody binding signal [4] | antibody binding signal [5] | antibody binding signal [6] | antibody binding signal [7] | antibody binding signal [8] | antibody binding signal [9] | antibody binding signal [10] | antibody binding signal [11] | antibody binding signal [12] |
| --- | --- | --- | --- | --- | --- | --- | --- | --- | --- | --- | --- | --- |
| GTENKPATGGAPSPS | 42600 | 21500 | 8640 | 619 | 1870 | 3340 | 500 | 2230 | 740 | 192 | 340 | 216 |
| TEKKTATGGAPSPSG | 2650 | 407 | 5450 | 4460 | 2160 | 2220 | 388 | 893 | 183 | 144 | 388 | 221 |
| NKTAAGGTPSPSGAS | 1630 | 280 | 5120 | 6170 | 780 | 1660 | 667 | 967 | 944 | 409 | 833 | 1330 |
| TDKKTAAGGTPSQPG | 1700 | 277 | 364 | 11600 | 415 | 1680 | 407 | 100 | 859 | 391 | 1040 | 182 |
| PSGTENKPATGGTPS | 48800 | 34600 | 46900 | 1920 | 4410 | 12900 | 1800 | 2520 | 946 | 513 | 593 | 609 |
| GTDKKAATGGAPSPS | 787 | 308 | 504 | 3100 | 1030 | 1140 | 333 | 642 | 119 | 433 | 122 | 148 |
| TDKKTAAGGAPSQSG | 1140 | 378 | 223 | 6120 | 495 | 484 | 151 | 132 | 159 | 159 | 196 | 130 |
| GTENKPAAGGAPSPS | 45200 | 6630 | 7270 | 1870 | 2090 | 1820 | 405 | 1750 | 385 | 257 | 275 | 181 |
| TDKKAATGEAPSQPG | 21900 | 35300 | 40800 | 201 | 359 | 23700 | 348 | 79.3 | 376 | 413 | 185 | 141 |
| ISTPPSGKDKKPATG | 26300 | 1240 | 5170 | 257 | 52200 | 902 | 347 | 636 | 132 | 164 | 129 | 119 |
| GKEKKAATGGTPSQS | 5470 | 257 | 303 | 2170 | 2580 | 2140 | 177 | 94.1 | 239 | 269 | 148 | 115 |
| TSSTPPSGKDKKPAT | 27800 | 979 | 4360 | 274 | 49300 | 889 | 272 | 141 | 125 | 207 | 112 | 132 |
| TDKKTATGGAPSPPG | 1180 | 302 | 880 | 4120 | 564 | 1130 | 318 | 198 | 137 | 113 | 196 | 180 |
| SGKDNKTATGEAPSQ | 12000 | 20400 | 21800 | 2040 | 381 | 21000 | 334 | 260 | 187 | 386 | 90.8 | 162 |
| GKDNKAATGGTPSPP | 2050 | 715 | 1780 | 5720 | 5910 | 4480 | 190 | 221 | 160 | 170 | 80.5 | 94.3 |
| TENKAATGETPSPSG | 32300 | 4320 | 17000 | 290 | 145 | 13800 | 168 | 205 | 155 | 130 | 350 | 3170 |
| SGKDNKTAAGETPSQ | 1010 | 443 | 1950 | 3420 | 1040 | 3210 | 283 | 345 | 166 | 692 | 206 | 163 |
| SGKDKKAAAGGAPSQ | 428 | 166 | 315 | 3350 | 888 | 984 | 123 | 78.5 | 92.2 | 136 | 65.9 | 92.1 |
| STPPSGTDKKTATGE | 32800 | 30300 | 31900 | 5880 | 40500 | 6340 | 556 | 145 | 461 | 229 | 1090 | 108 |
| KDNKPATGGTPSQPG | 325 | 209 | 11600 | 563 | 260 | 461 | 500 | 421 | 382 | 209 | 388 | 128 |
